The supplement of paper PMC3334620
The full ranking holds about 33,000 sequences; the median of “E-score (-0.5 to 0.5)” is about -0.036, and the highest 2% start at about 0.37. The list shows a part of the results.

The sequences below were run against T1, Yer064c (UniProt P40041) (assay: PBM E-score (8-mer binding enrichment) (E-score (-0.5 to 0.5)); higher = stronger / more preferred TF binding; most listed sequences are background and not binding sites). Details: protein concentration: 200 nM; construct: GST-full length.
T1 sequence: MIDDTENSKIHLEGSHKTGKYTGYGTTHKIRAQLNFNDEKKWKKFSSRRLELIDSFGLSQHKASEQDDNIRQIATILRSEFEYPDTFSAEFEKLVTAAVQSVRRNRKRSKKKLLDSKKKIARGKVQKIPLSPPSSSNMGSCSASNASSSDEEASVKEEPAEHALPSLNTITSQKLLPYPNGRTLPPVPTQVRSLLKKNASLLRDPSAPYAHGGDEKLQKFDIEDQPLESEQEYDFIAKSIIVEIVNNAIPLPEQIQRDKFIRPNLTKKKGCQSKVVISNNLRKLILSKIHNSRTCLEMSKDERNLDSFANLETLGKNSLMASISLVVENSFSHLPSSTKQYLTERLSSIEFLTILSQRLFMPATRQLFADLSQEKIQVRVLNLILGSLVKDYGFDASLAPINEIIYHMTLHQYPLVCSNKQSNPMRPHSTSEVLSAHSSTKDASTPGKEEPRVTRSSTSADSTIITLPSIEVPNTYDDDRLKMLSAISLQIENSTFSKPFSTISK
Procedure, shortened: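 The E-score, a modified Wilcoxon-Mann-Whitney statistic, was computed by the Universal PBM Analysis Suite for every ungapped eight-base word pooled with its reverse complement. Scans behind it were normalised with masliner after bound GST-tagged yeast transcription factors were detected with fluorescent anti-GST. The proteins, at about 100-200 nM, had been applied to universal all-10-mer Agilent arrays made double-stranded by primer extension.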

Going from ACGCGCGT to AGCCTCGG, the “PBM E-score” value falls from -0.0373 to -0.131.

Going from ACGTACAC to AGATGTCA, the “PBM E-score” value falls from 0.016 to -0.177.

Going from TATTATAA to CCAAAACG, the “PBM E-score” value falls from 0.143 to 0.102.

First: AAGAGCCC
Second: CCACAGGA
The “PBM E-score” value of the first is lower: -0.196 for the first, -0.0975 for the second.

First: TACACCAA
Second: AGGCCACT
The “PBM E-score” value of the first is higher: -0.0139 for the first, -0.286 for the second.

Compared with TCGCAGAA, AATAGTCT is higher in “PBM E-score” value: -0.098 for the first, 0.297 for the second.

Compared with ACAGTTTC, GCAGTTGA is higher in “PBM E-score” value: 0.00616 for the first, 0.138 for the second.

Compared with CCCCAGCA, AACTGCCC is higher in “PBM E-score” value: -0.275 for the first, -0.147 for the second.

First: TACCAAGA
Second: ATGTCGGC
The “PBM E-score” value of the first is higher: 0.0476 for the first, -0.0683 for the second.

First: CACCCGAC
Second: CTGGCGTC
The “PBM E-score” value of the first is higher: 0.0884 for the first, -0.0672 for the second.

First: ATTCCCTA
Second: CCTTTTCA
The “PBM E-score” value of the first is lower: -0.148 for the first, -0.104 for the second.

First: AAGCGCCA
Second: AGTCCAAA
The “PBM E-score” value of the first is lower: -0.24 for the first, 0.136 for the second.

First: ACTTCAAT
Second: ATTGTTGC
The “PBM E-score” value of the first is higher: 0.106 for the first, -0.0256 for the second.

First: AGCTACTC
Second: CCACGACC
The “PBM E-score” value of the first is lower: -0.106 for the first, 0.0717 for the second.

Going from GCTACATA to AGCCACTA, the “PBM E-score” value rises from 0.00598 to 0.0591.

Compared with CGGTCATC, AGCTCGGC is lower in “PBM E-score” value: -0.108 for the first, -0.151 for the second.

Going from CACATTAC to AAAATGGG, the “PBM E-score” value falls from -0.0779 to -0.239.

First: CACTATAG
Second: GAGAAGGA
The “PBM E-score” value of the first is higher: -0.0715 for the first, -0.183 for the second.

First: ATATCCTA
Second: CTCTTCTA
The “PBM E-score” value of the first is lower: -0.078 for the first, -0.0284 for the second.

Going from ACGTGCGG to CCCCACGG, the “PBM E-score” value rises from -0.247 to -0.239.

First: GGATTTAC
Second: GAAGGTAA
The “PBM E-score” value of the first is lower: -0.101 for the first, 0.0282 for the second.

First: CTCAGATC
Second: GAATCTCA
The “PBM E-score” value of the first is lower: 0.0765 for the first, 0.101 for the second.

First: ACGCCGTC
Second: ACTAATGC
The “PBM E-score” value of the first is lower: -0.205 for the first, 0.23 for the second.

Compared with AAGAACTG, AGCCTGAT is higher in “PBM E-score” value: -0.104 for the first, 0.0848 for the second.

Compared with ATCGTCCA, ATACGCAC is lower in “PBM E-score” value: -0.116 for the first, -0.172 for the second.

First: GGCGTCGA
Second: CCGACCTC
The “PBM E-score” value of the first is lower: -0.154 for the first, -0.0328 for the second.

First: TGTGGGAA
Second: AATCATTG
The “PBM E-score” value of the first is lower: -0.0587 for the first, 0.43 for the second.

Compared with CTCAGACA, CTTTAGAC is higher in “PBM E-score” value: 0.0631 for the first, 0.108 for the second.

First: GTCTATTA
Second: CGTGGTTC
The “PBM E-score” value of the first is higher: 0.0741 for the first, 0.0434 for the second.

Compared with CACCCGTG, AATTCCCC is lower in “PBM E-score” value: 0.064 for the first, -0.128 for the second.

First: TCCTGTCA
Second: CTAGGAAG
The “PBM E-score” value of the first is higher: 0.128 for the first, 0.0853 for the second.

Going from ACTGCCCC to AAGTTCGC, the “PBM E-score” value rises from -0.136 to -0.098.

Compared with AAGTACAT, GGAATGAA is lower in “PBM E-score” value: 0.089 for the first, 0.00348 for the second.

Compared with TCAGTAGA, AGTTCAAA is lower in “PBM E-score” value: 0.187 for the first, 0.0705 for the second.

First: AACCCTAT
Second: AGGCCTAG
The “PBM E-score” value of the first is higher: 0.00296 for the first, -0.197 for the second.

Compared with CAGAATAA, CTGCAGAC is lower in “PBM E-score” value: 0.0889 for the first, -0.0447 for the second.

Going from ATAAATAG to GCATTATA, the “PBM E-score” value rises from -0.00962 to 0.00873.

Going from CCAGATAC to GCTCAATA, the “PBM E-score” value rises from -0.15 to 0.0778.

Compared with CAATCTAC, GGTGCGAC is lower in “PBM E-score” value: 0.0573 for the first, -0.0872 for the second.

First: CTGAGTAC
Second: GCTCGGCA
The “PBM E-score” value of the first is higher: 0.291 for the first, -0.165 for the second.

Compared with CGTCTAAA, CCGGCATA is lower in “PBM E-score” value: -0.155 for the first, -0.348 for the second.

First: AACAATGC
Second: TCTCCACA
The “PBM E-score” value of the first is lower: -0.0469 for the first, 0.0415 for the second.

Compared with CACTGCGG, CAGAGGCC is lower in “PBM E-score” value: -0.0304 for the first, -0.195 for the second.

Compared with GTATGGAC, GGATATCA is lower in “PBM E-score” value: -0.0453 for the first, -0.274 for the second.

Going from GCGCACGA to AAGACCCT, the “PBM E-score” value rises from -0.146 to 0.0125.

Compared with AAGGACCC, ACGAGATA is higher in “PBM E-score” value: -0.172 for the first, -0.0927 for the second.

First: GAAAATCC
Second: TCTACTCA
The “PBM E-score” value of the first is lower: -0.114 for the first, 0.202 for the second.

First: AACTCCCC
Second: CCTATTCA
The “PBM E-score” value of the first is higher: 0.0421 for the first, -0.199 for the second.

Compared with CCGTAATC, CACTTGGC is lower in “PBM E-score” value: 0.243 for the first, -0.159 for the second.

Going from CCGTCGTA to CCTTAGAG, the “PBM E-score” value rises from -0.0863 to -0.0606.

First: CGAACTCG
Second: AGGCGATG
The “PBM E-score” value of the first is higher: -0.0883 for the first, -0.109 for the second.

First: GAGAGGAC
Second: CCTCAGCA
The “PBM E-score” value of the first is higher: 0.00017 for the first, -0.202 for the second.

Going from ACTCGCAG to TTATAAAA, the “PBM E-score” value falls from 0.16 to 0.138.

First: GAACTGTC
Second: ACACCTTG
The “PBM E-score” value of the first is higher: -0.0169 for the first, -0.0294 for the second.

First: AACTCCCA
Second: AGGCCTAA
The “PBM E-score” value of the first is lower: -0.184 for the first, -0.0777 for the second.

First: ATAATATG
Second: CCGTTTTC
The “PBM E-score” value of the first is lower: -0.107 for the first, -0.0936 for the second.

Going from CCCCTGTC to ACCTTGTA, the “PBM E-score” value rises from -0.333 to 0.0112.

First: GATCCCTA
Second: GTCGGTGA
The “PBM E-score” value of the first is lower: -0.0608 for the first, 0.13 for the second.

Going from CACGAAAA to CAAAACTA, the “PBM E-score” value rises from 0.0751 to 0.117.

Going from AAGCTGCC to AATCCTCA, the “PBM E-score” value rises from -0.236 to 0.0864.

Compared with CAACCGTA, AAATAGCG is higher in “PBM E-score” value: -0.103 for the first, -0.0475 for the second.

First: GGATCGAA
Second: CGCTATCA
The “PBM E-score” value of the first is higher: -0.0574 for the first, -0.271 for the second.

Going from GACGCACC to ACGCTGCA, the “PBM E-score” value rises from -0.166 to -0.141.

Compared with CCGAGAAC, CCTCACCC is lower in “PBM E-score” value: -0.033 for the first, -0.213 for the second.

Going from GCTCTCAC to AAGCTCAT, the “PBM E-score” value rises from -0.335 to -0.0196.

First: AGGATCCA
Second: AACGCTAC
The “PBM E-score” value of the first is higher: -0.145 for the first, -0.265 for the second.

Compared with AACCTCTT, ATATCGTC is lower in “PBM E-score” value: 0.161 for the first, -0.193 for the second.

First: GCAAATCA
Second: AAGTCCGC
The “PBM E-score” value of the first is higher: 0.0991 for the first, -0.0299 for the second.

Going from CTCCGCTA to CGCCTGCC, the “PBM E-score” value falls from 0.00784 to -0.112.

Compared with GCTACCGA, AGGTCCGG is lower in “PBM E-score” value: -0.0666 for the first, -0.239 for the second.

First: ACAGAACG
Second: GAAAGTTC
The “PBM E-score” value of the first is higher: 0.0496 for the first, -0.273 for the second.

Going from GAAGATTC to AAGAGTTC, the “PBM E-score” value falls from 0.276 to 0.0614.

First: GATCGAAA
Second: TCCTTCGA
The “PBM E-score” value of the first is lower: 0.00101 for the first, 0.00429 for the second.

Going from ATAAGGTA to GTACTCTA, the “PBM E-score” value rises from -0.0959 to 0.121.

First: CCGCCTAA
Second: GCTGCCGA
The “PBM E-score” value of the first is higher: -0.142 for the first, -0.159 for the second.

Compared with CTTTCGCC, GAACACTC is higher in “PBM E-score” value: -0.218 for the first, -0.0178 for the second.

First: AGTAGGTA
Second: ACAACGCT
The “PBM E-score” value of the first is higher: 0.0273 for the first, -0.108 for the second.

Compared with AGACAAGA, TAACACAA is higher in “PBM E-score” value: -0.0299 for the first, 0.0793 for the second.

Compared with AATTGCGA, AACGTCCT is lower in “PBM E-score” value: -0.0878 for the first, -0.254 for the second.

Going from CGGTAGAC to AATATCAA, the “PBM E-score” value rises from 0.0865 to 0.134.

First: ACAGGTCC
Second: AGCTTGGA
The “PBM E-score” value of the first is lower: -0.241 for the first, -0.209 for the second.

Going from ATCCGGAC to AGATCTTC, the “PBM E-score” value rises from -0.228 to -0.202.

Going from GATAGAAC to ATTGCTGA, the “PBM E-score” value rises from -0.0928 to 0.0771.

Compared with ATTGGTTG, CTCGAGCC is lower in “PBM E-score” value: -0.0268 for the first, -0.149 for the second.

First: AAGAACGC
Second: CCCGGGGA
The “PBM E-score” value of the first is lower: -0.215 for the first, -0.133 for the second.

First: CTGTAATA
Second: ATAAAAAT
The “PBM E-score” value of the first is lower: 0.153 for the first, 0.173 for the second.
